Laboratory results from PubChem BioAssay AID1508642 (National Center for Advancing Translational Sciences (NCATS), 2021).
Screen size: about 43,000 compounds; about 200 (0.47%) were called active. About 12% were inconclusive and are not listed. Calls come from the whole dose curve; as a rule, active = well fitted cell-killing curve with a large enough effect; inconclusive = small, poorly fitted or top-dose-only effect, or effect the other way; inactive = flat fitted curve, though single readings scatter. This is one part of the list.

Experiment: Cell viability qHTS assay in S16 Pmp22-F2sN cells; note: nearly all actives have a fitted effect of over 65% in size
Conditions: S16 Pmp22-F2sN Schwann cells (luciferase reporters placed in the Pmp22 gene) viability, CellTiter-Glo, 24 h; series mostly up to 57.5 µM; activity change, negative = cytotoxicity: at the top concentration
Outline: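 CellTiter-Glo counter-screen, qHTS, 1536-well. Cells: S16(c9) Pmp22-F2sN, 500-1,000/well in DMEM + 10% FBS. Cpd 23 nL pin transfer, 24 h, 37C/5% CO2. Read: luminescence, CCD imager.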
% is set by controls: 0 for no effect and ±100 for the full control effect.

| SMILES | activity change, negative = cytotoxicity |
| --- | --- |
| Cc1ccc(-n2ncc3c(Nc4ccc5c(c4)OCCO5)ncnc32)cc1Cl | inactive: -1.76% |
| CCOCCCN1C(=O)CN(C2CCCCCC2)C(=O)C1c1ccc(OCC)c(OC)c1 (stereo not given) | inactive: 1.28% |
| COc1ccc(S(=O)(=O)NCCc2sc(-c3cccnc3)nc2C)cc1 | inactive: 15.7% |
| O=C(NC1CC(=O)N(c2ccc(F)cc2)C1)c1ccc(S(=O)(=O)N2CCOCC2)cc1 (stereo not given) | inactive: 9.24% |
| O=C(O)CCC(=O)N1CCc2cc(S(=O)(=O)NCc3ccc(F)cc3)ccc21 | inactive: -0.978% |
| COc1ccc(NC(=O)c2cccc3c(=O)c4c([nH]c23)CCCC4)cc1 | inactive: 6.94% |
| Cc1ccc(C(C)C)c(OCC(=O)Nc2ccc3c(c2)nc(CCNC(=O)c2ccco2)n3C)c1 | inactive: 7.06% |
| CCSc1nc(-c2ccccc2)nc2c1Cc1c(CO)cnc(C)c1O2 | inactive: -0.118% |
| CCOC(=O)C1CCN(C(=O)C2CCN(S(=O)(=O)c3c(C)noc3/C=C/c3ccc(C)cc3)CC2)CC1 | inactive: 17.8% |
| CCOC(=O)c1[nH]c(C)c(CCC(=O)N2CCN(c3ccc(OC)cc3)CC2)c1C | inactive: 21.1% |
| Cc1cc(S(=O)(=O)Nc2cc3c(cc2N2CCOCC2)n(C)c(=O)c(=O)n3C)ccc1F | inactive: 7.1% |
| O=C(Nc1cccc(Br)c1)c1cc(S(=O)(=O)N2CCCCC2)c[nH]1 | inactive: -1.21% |
| COc1ccc(-c2nc3n(n2)C(c2ccc(O)cc2)C(C(=O)Nc2cccnc2)=C(C)N3)cc1OC (stereo not given) | inactive: -2.26% |
| Cc1csc2nc(COc3ccc(NC(=O)c4ccccc4F)cc3)cc(=O)n12 | inactive: -6.56% |
| COc1ccc(C(=O)Nc2nc(-c3ccc(Br)cc3)ns2)cc1 | inactive: -3.7% |
| CCOc1ccc(CCNC(=O)NCc2noc3ccc(C)cc23)cc1 | inactive: 11.9% |
| CCOCCc1nn2c(=O)cc(COC(=O)c3ccc(NC(=O)c4cccs4)cc3)nc2s1 | inactive: -7.33% |
| CCCNC(=O)c1ccc(Cn2c(SCC(=O)NC(C)C)nc3ccccc3c2=O)cc1 | inactive: 14.4% |
| CCCn1c2ccccc2c2cnn(CC(=O)NCC3CCN(Cc4ccccc4C)CC3)c(=O)c21 | inactive: -16.4% |
| COC(=O)CN1C(=O)C(O)(c2c(C)[nH]c3ccccc23)c2ccccc21 (stereo not given) | inactive: -8.87% |
| CC(=O)N1CCCc2cc(S(=O)(=O)Nc3ccc(Cl)cc3F)ccc21 | inactive: -19.5% |
| COCCNC(=O)CCn1nc(-c2ccc(Cl)cc2)c2ccccc2c1=O | inactive: -5.21% |
| CC1CCN(C(c2ccc(F)cc2)c2sc3nc(-c4ccco4)nn3c2O)CC1 (stereo not given) | inactive: 2.02% |
| COc1ccc(CC(=O)N2CCc3c([nH]c4ccccc34)C2c2ccc(SC)cc2)cc1 (stereo not given) | inactive: 0.464% |

| SMILES | activity change, negative = cytotoxicity |
| --- | --- |
| O=C(Nc1ccc2oc(-c3cccnc3)nc2c1)c1ccccc1F | inactive: 0.22% |
| O=C(c1ccc2c(c1)N(Cc1ccccc1)C(=O)c1ccccc1S2(=O)=O)N1CCOCC1 | inactive: 0.309% |
| COc1ccc(NC(=O)C(NC(=O)/C=C\c2ccc3c(c2)OCO3)c2ccc(C)cc2)cc1 (stereo not given) | inactive: -9.88% |
| CCc1ccc(-n2c(N3CCN(c4ccc(F)cc4)CC3)nc3ccccc3c2=O)cc1 | inactive: -17.5% |
| COc1ccc(C(=O)N2CCN(C(=O)COc3ccccc3)CC2)cc1OC | inactive: 7.04% |
| COc1ccc(C)cc1NC(=O)Cn1nc(N2CCN(c3ccccc3OC)CC2)ccc1=O | inactive: 7.5% |
| COc1ccccc1Cc1nc2ccccc2nc1SCC(=O)NCc1ccc(C)cc1 | inactive: 1.28% |
| O=C(COCc1cc(-c2ccco2)on1)Nc1cc(Cl)ccc1O | inactive: -4.92% |
| COc1ccc(-c2nc(SCC(=O)NC3CCCC3)c(-c3ccc(F)cc3)[nH]2)cc1OC | inactive: -15.2% |
| COc1ccccc1CNC(=O)C(=O)NCC(c1cccnc1)N1CCN(c2ccccc2)CC1 (stereo not given) | inactive: -26.4% |
| Cc1noc(C)c1S(=O)(=O)N(CC(=O)NCc1ccccc1)c1ccc(C(C)C)cc1 | inactive: -0.42% |
| CCOC(=O)c1ccc(Nc2c(-c3ccc(N(C)C)cc3)nc3nc[nH]n23)cc1 | inactive: -3.18% |
| O=C(CN1C(=O)CCc2cc(Br)ccc21)Nc1ccc(OC(F)(F)F)cc1 | inactive: 17.6% |
| Cc1ccc(C)c(CN2CCCN(Cc3ccccc3C)S2(=O)=O)c1 | inactive: -3.57% |
| Cc1cc(C)cc(NC(=O)CN2C(=O)c3ccccc3Sc3ccc(C(=O)N4CCCC4)cc32)c1 | inactive: 2.56% |
| COc1ccc(Cn2c(=O)n(-c3ccc(C)cc3)c(=O)c3c2c2cc(C)ccc2n3C)cc1 | inactive: -1.59% |
| COc1cccc(CNC(=O)c2nn(C)c3c2CSc2ccccc2-3)c1 | inactive: 1.34% |
| COc1ccc(NC(=O)c2cnc3cc(C)ccn3c2=O)c(OC)c1 | inactive: 10.5% |
| CC(C)CCNC(=O)CCCn1c(=O)c2cccn2c2ccccc21 | inactive: 9.85% |
| Cc1cccc(CS(=O)(=O)Cc2ccc(C(=O)NCc3ccc(F)cc3)o2)c1 | inactive: -12.1% |
| COc1cccc(NC(=O)c2cnc(SCC(=O)N3CCCc4ccccc43)n(C)c2=O)c1 | inactive: -2.74% |
| COc1ccccc1N1CCN(S(=O)(=O)c2cc(C(=O)Nc3ccc(Oc4ccccc4)cc3)ccc2F)CC1 | inactive: -28% |
| Cc1ccc2nc(-c3ccc(Cl)c(NC(=O)COc4ccc([N+](=O)[O-])cc4)c3)oc2c1 | inactive: 2.79% |
| O=C(Cn1c(=O)n(-c2ccccc2)c(=O)c2c3c(sc21)CCC3)c1ccc(Br)cc1 | inactive: 11.1% |

| SMILES | activity change, negative = cytotoxicity |
| --- | --- |
| Cc1noc(-c2ccc(-c3noc(-c4ccc(Cl)cc4)n3)cc2)n1 | inactive: 3.49% |
| CCN(C(=O)c1cc2c(=O)oc3ccccc3c2s1)c1ccccc1F | inactive: -1.59% |
| CCc1ccc2occ(CC(=O)Nc3c(C(=O)c4ccccc4)oc4ccccc34)c2c1 | inactive: 4.82% |
| CCOC(=O)c1c(-c2ccccc2)oc2ccc(NS(=O)(=O)c3ccc(C)cc3)cc12 | inactive: -16.8% |
| CCN1C(=O)c2ccccc2Sc2ccc(NC(=O)Nc3cc(C)cc(C)c3)cc21 | inactive: -0.183% |
| COc1ccccc1Cn1c(C2CC(=O)N(c3ccccc3OC)C2)nc2ccccc21 (stereo not given) | inactive: -2.47% |
| Cc1ccnc(NC(c2cccc(O)c2)c2ccc3ccc(C)nc3c2O)c1 (stereo not given) | inactive: -2.48% |
| Cc1ccc(CNC(=O)c2cc3sc(Cl)cc3n2C)cc1 | inactive: 19.2% |
| O=C(Nc1cc(F)ccc1F)C1CCN(C(=O)c2cnn(-c3ccccc3)c2-n2cccc2)CC1 | inactive: -11.7% |
| Cc1ccc(NC(=O)CSc2nncn2C)c(C)c1 | inactive: 5.93% |
| COc1ccc(NC(=O)CSC2=Nc3ccccc3C3=NC(CCC(=O)NC4CCCCC4)C(=O)N23)cc1Cl (stereo not given) | inactive: -11.7% |
| COc1ccc(-c2noc(-c3nnn(-c4ccc(C)cc4C)c3C)n2)cc1 | inactive: -5.13% |
| COc1ccccc1NC(=O)CSCc1cc(=O)c2cccc(Cl)c2[nH]1 | inactive: 17.9% |
| COc1ccc(OC)c(C2CC(=O)Nc3c2c(=O)n(C)c2ncnn32)c1 (stereo not given) | inactive: 1.32% |
| COc1ccc(Cl)c2sc(NC(=O)c3ccc(S(=O)(=O)N4CCCC4)cc3)nc12 | inactive: 6.54% |
| Cc1ccc(C)c(NC(=O)Cn2nnc(C(=O)NCCc3ccccc3)c2N)c1 | inactive: 3.21% |
| CCOC(=O)c1ccc(NC(=O)C(CC)Sc2nnc3c4ccccc4n(C)c3n2)cc1 (stereo not given) | inactive: 4.67% |
| CCC1=Nc2cc(C(=O)NCc3ccccc3Cl)ccc2Sc2ccc(C)cc21 | inactive: -13.9% |
| Cc1cc(C)c(NC(=O)Cn2c(=O)n(Cc3ccc4c(c3)OCO4)c(=O)c3ccccc32)c(C)c1 | inactive: -6.14% |
| CCOC(=O)c1c(C)[nH]c(CCC(=O)Nc2c(Cl)cc(OC)cc2OC)c1C | inactive: -1.4% |
| N#Cc1cccc(Nc2ncnc3c2cnn3-c2cccc(Cl)c2)c1 | inactive: 22.5% |
| O=C(CSc1nncn2c1cc1occc12)Nc1ccccc1C(F)(F)F | inactive: 1.65% |
| CCc1ccccc1NC(=O)CN(c1cccc(C)c1C)S(C)(=O)=O | inactive: 8.65% |
| CCOC(=O)C1CCCN(S(=O)(=O)c2ccc3c(c2)CCN3C(=O)CC)C1 (stereo not given) | inactive: -9.23% |

| SMILES | activity change, negative = cytotoxicity |
| --- | --- |
| COc1ccc(CNC(=O)Cn2c(=O)nc(-c3ccccc3F)c3cc(Cl)ccc32)cc1OC | inactive: -0.353% |
| CCCc1nc2nc(C)c(NS(=O)(=O)c3ccc(F)cc3)c(=O)n2[nH]1 | inactive: -1.74% |
| CCc1ccc(S(=O)(=O)c2cnc3ccc(OC)cc3c2N2CCCC(C)C2)cc1 (stereo not given) | inactive: -15.3% |
| Cc1cc(C(=O)N2CCN(c3ccc(F)cc3)CC2)c2c(C)nn(-c3cccc(Cl)c3C)c2n1 | inactive: 3.91% |
| O=[N+]([O-])c1ccc(S(=O)(=O)NCc2nc3cccnc3n2Cc2ccccc2Cl)cc1 | inactive: -1.09% |
| Cc1ccc(C)c(OCCn2cc(C(=O)c3cccs3)c3ccccc32)c1 | inactive: 10.7% |
| Cc1c(C(=O)OCC2CCCCC2)[nH]c2c1C(=O)CC(c1ccc(F)cc1)C2 (stereo not given) | inactive: -0.182% |
| COC(=O)c1cc(NC(=O)C2CCCN(S(=O)(=O)c3c(C)n[nH]c3C)C2)cc(C(=O)OC)c1 (stereo not given) | inactive: 0.434% |
| COc1ccc(C)cc1NC(=O)Cn1c(=O)nc(-c2ccccc2F)c2cc(Cl)ccc21 | inactive: -8.37% |
| O=c1nc2c(-c3ccc(F)cc3Cl)n[nH]n2c2ccccc12 | inactive: -4.13% |
| COCc1cc(C)nc2sc(C(=O)Nc3ccc(OC(F)(F)F)cc3)c(N)c12 | inactive: -20.6% |
| Cc1cccc(Nc2c(-c3cccs3)nc3nc(C)cc(C)n23)c1 | inactive: -12.9% |
| CCc1ccc(CNC(=O)c2cc3c(=O)n(CC)c4ccccc4c3s2)cc1 | inactive: 12.6% |
| O=C(NC(=O)c1ccccc1)Nc1ccc(-n2nc(C(F)(F)F)cc2C(F)(F)F)cc1 | inactive: -0.984% |
| CC1CCC(NC(=O)c2ccc3c(c2)N(Cc2ccccc2)C(=O)c2ccccc2S3(=O)=O)CC1 (stereo not given) | inactive: -1.68% |
| COc1ccccc1CNC(=O)CCc1c(C)nc2c(c(C)nn2-c2ccc(C)c(C)c2)c1C | inactive: 4.05% |
| CC(C)(C)OC(=O)N1CCC(c2c(C(=O)NCc3ccccc3)cnn2-c2ccccc2)CC1 | inactive: -2.87% |
| CCCCn1c(=N)c(S(=O)(=O)c2ccc(Cl)cc2)cc2c(=O)n3cccc(C)c3nc21 | inactive: 20.9% |
| CCOC(=O)CNc1nc2ccccc2n2c(C)nnc12 | inactive: 1.22% |
| O=C(c1ccc2c(c1)CCN2S(=O)(=O)c1ccccc1)N1CCN(c2cccc(Cl)c2)CC1 | inactive: -5.64% |
| CCc1ccc(NC(=O)CSc2nc3c(sc4ccccc43)c(=O)n2CCCOC)cc1 | inactive: 21.3% |
| Cc1ccc(CNC(=O)c2cnc(N3CCCCC3)c3ccccc23)cc1 | inactive: 3.11% |
| COc1ccc(OC)c(NC(=O)Cn2c(=O)n(CC3CCCO3)c(=O)c3cc(OC)c(OC)cc32)c1 (stereo not given) | inactive: 16.1% |
